Data published in the supplement of paper PMC8728848.
This is one part of the list.

Legend:
Experiment in all cases: glycan array binding signal (z-score within array); higher = stronger binding
Conditions in all cases: glycan notation: IUPAC condensed, linker removed
[1] = molecular target: Gal(b1-3)[Neu5Ac(a2-6)]GlcNAc
Outline: (§1)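 The binding signal is a Z-score computed within each array and averaged over linkers. Arrays of the same protein sequence at different concentrations or buffers were also averaged together. Data originate from 3228 arrays in the Consortium for Functional Glycomics database, kept only where the protein sequence was available.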

[2] = molecular target: Gal(b1-3)[Neu5Ac(a2-6)]GlcNAc(a1-4)Gal(b1-4)Glc
Outline: as §1

[3] = molecular target: Gal(b1-3)[Neu5Ac(a2-6)]GlcNAc(b1-4)Gal(b1-4)Glc
Outline: as §1

[4] = molecular target: Gal(b1-3)[Neu5Ac(a2-6)]GlcNAc(b1-6)Gal(b1-4)Glc
Outline: as §1

[5] = molecular target: Gal(b1-3)[Neu5Ac(b2-6)]GalNAc
Outline: as §1

[6] = molecular target: Gal(b1-3)[Neu5Ac(b2-6)]GlcNAc
Outline: as §1

Gal(b1-4)Gal = molecular target: Gal(b1-4)Gal
Outline: as §1

[7] = molecular target: Gal(b1-4)GalNAc(a1-3)[Fuc(a1-2)]Gal(b1-4)GlcNAc
Outline: as §1

[8] = molecular target: Gal(b1-4)GalNAc(b1-3)[Fuc(a1-2)]Gal(b1-4)GlcNAc
Outline: as §1

Gal(b1-4)Glc = molecular target: Gal(b1-4)Glc
Outline: as §1

Gal(b1-4)Glc6S = molecular target: Gal(b1-4)Glc6S
Outline: as §1

Gal(b1-4)GlcNAc = molecular target: Gal(b1-4)GlcNAc
Outline: as §1

[9] = molecular target: Gal(b1-4)GlcNAc(a1-6)Gal(b1-4)GlcNAc
Outline: as §1

Gal(b1-4)GlcNAc(b1-2)Man = molecular target: Gal(b1-4)GlcNAc(b1-2)Man
Outline: as §1

[10] = molecular target: Gal(b1-4)GlcNAc(b1-2)Man(a1-3)Man(b1-4)GlcNAc(b1-4)GlcNAc
Outline: as §1

[11] = molecular target: Gal(b1-4)GlcNAc(b1-2)Man(a1-3)[Gal(b1-4)GlcNAc(b1-2)Man(a1-6)]Man(b1-4)GlcNAc(b1-4)GlcNAc
Outline: as §1

[12] = molecular target: Gal(b1-4)GlcNAc(b1-2)Man(a1-3)[Gal(b1-4)GlcNAc(b1-2)Man(a1-6)]Man(b1-4)GlcNAc(b1-4)[Fuc(a1-6)]GlcNAc
Outline: as §1

[13] = molecular target: Gal(b1-4)GlcNAc(b1-2)Man(a1-3)[Gal(b1-4)GlcNAc(b1-2)Man(a1-6)][Gal(b1-4)GlcNAc(b1-4)]Man(b1-4)GlcNAc(b1-4)[Fuc(a1-6)]GlcNAc
Outline: as §1

[14] = molecular target: Gal(b1-4)GlcNAc(b1-2)Man(a1-3)[Gal(b1-4)GlcNAc(b1-2)Man(a1-6)][GlcNAc(b1-4)]Man(b1-4)GlcNAc(b1-4)[Fuc(a1-6)]GlcNAc
Outline: as §1

[15] = molecular target: Gal(b1-4)GlcNAc(b1-2)Man(a1-3)[GlcNAc(b1-2)Man(a1-6)]Man(b1-4)GlcNAc(b1-4)GlcNAc
Outline: as §1

[16] = molecular target: Gal(b1-4)GlcNAc(b1-2)Man(a1-3)[GlcNAc(b1-4)][Gal(b1-4)GlcNAc(b1-2)Man(a1-6)]Man(b1-4)GlcNAc(b1-4)GlcNAc
Outline: as §1

[17] = molecular target: Gal(b1-4)GlcNAc(b1-2)Man(a1-3)[Man(a1-6)]Man(b1-4)GlcNAc(b1-4)GlcNAc
Outline: as §1

[18] = molecular target: Gal(b1-4)GlcNAc(b1-2)Man(a1-6)Man(b1-4)GlcNAc(b1-4)GlcNAc
Outline: as §1

[19] = molecular target: Gal(b1-4)GlcNAc(b1-2)Man(a1-6)[GlcNAc(b1-2)Man(a1-3)]Man(b1-4)GlcNAc(b1-4)GlcNAc
Outline: as §1

[20] = molecular target: Gal(b1-4)GlcNAc(b1-2)Man(a1-6)[Man(a1-3)]Man(b1-4)GlcNAc(b1-4)GlcNAc
Outline: as §1

[21] = molecular target: Gal(b1-4)GlcNAc(b1-2)[Gal(b1-4)GlcNAc(b1-4)]Man(a1-3)[Gal(b1-4)GlcNAc(b1-2)Man(a1-6)]Man(b1-4)GlcNAc(b1-4)GlcNAc
Outline: as §1

[22] = molecular target: Gal(b1-4)GlcNAc(b1-2)[Gal(b1-4)GlcNAc(b1-4)]Man(a1-3)[Gal(b1-4)GlcNAc(b1-2)[Gal(b1-4)GlcNAc(b1-6)]Man(a1-6)]Man(b1-4)GlcNAc(b1-4)GlcNAc
Outline: as §1

[23] = molecular target: Gal(b1-4)GlcNAc(b1-2)[Gal(b1-4)GlcNAc(b1-4)]Man(a1-3)[GlcNAc(b1-4)][Gal(b1-4)GlcNAc(b1-2)Man(a1-6)]Man(b1-4)GlcNAc(b1-4)GlcNAc
Outline: as §1

[24] = molecular target: Gal(b1-4)GlcNAc(b1-2)[Gal(b1-4)GlcNAc(b1-4)]Man(a1-3)[GlcNAc(b1-4)][Gal(b1-4)GlcNAc(b1-2)[Gal(b1-4)GlcNAc(b1-6)]Man(a1-6)]Man(b1-4)GlcNAc(b1-4)GlcNAc
Outline: as §1

[25] = molecular target: Gal(b1-4)GlcNAc(b1-2)[Gal(b1-4)GlcNAc(b1-6)]Man(a1-6)[Gal(b1-4)GlcNAc(b1-2)Man(a1-3)]Man(b1-4)GlcNAc(b1-4)GlcNAc
Outline: as §1

[26] = molecular target: Gal(b1-4)GlcNAc(b1-2)[Gal(b1-4)GlcNAc(b1-6)]Man(a1-6)[Gal(b1-4)GlcNAc(b1-2)Man(a1-3)]Man(b1-4)GlcNAc(b1-4)[Fuc(a1-6)]GlcNAc
Outline: as §1

[27] = molecular target: Gal(b1-4)GlcNAc(b1-2)[Gal(b1-4)GlcNAc(b1-6)]Man(a1-6)[GlcNAc(b1-4)][Gal(b1-4)GlcNAc(b1-2)Man(a1-3)]Man(b1-4)GlcNAc(b1-4)GlcNAc
Outline: as §1

[28] = molecular target: Gal(b1-4)GlcNAc(b1-2)[Gal(b1-4)GlcNAc(b1-6)]Man(a1-6)[GlcNAc(b1-4)][Gal(b1-4)GlcNAc(b1-2)[Gal(b1-4)GlcNAc(b1-4)]Man(a1-3)]Man(b1-4)GlcNAc(b1-4)[Fuc(a1-6)]GlcNAc
Outline: as §1

[29] = molecular target: Gal(b1-4)GlcNAc(b1-3)Gal(b1-3)GalNAc
Outline: as §1

[30] = molecular target: Gal(b1-4)GlcNAc(b1-3)Gal(b1-3)GlcNAc
Outline: as §1

[31] = molecular target: Gal(b1-4)GlcNAc(b1-3)Gal(b1-4)Glc
Outline: as §1

[32] = molecular target: Gal(b1-4)GlcNAc(b1-3)Gal(b1-4)GlcNAc
Outline: as §1

[33] = molecular target: Gal(b1-4)GlcNAc(b1-3)Gal(b1-4)GlcNAc(b1-2)Man(a1-3)[Gal(b1-4)GlcNAc(b1-3)Gal(b1-4)GlcNAc(b1-2)Man(a1-6)]Man(b1-4)GlcNAc(b1-4)GlcNAc
Outline: as §1

[34] = molecular target: Gal(b1-4)GlcNAc(b1-3)Gal(b1-4)GlcNAc(b1-2)Man(a1-3)[Gal(b1-4)GlcNAc(b1-3)Gal(b1-4)GlcNAc(b1-2)Man(a1-6)]Man(b1-4)GlcNAc(b1-4)[Fuc(a1-6)]GlcNAc
Outline: as §1

[35] = molecular target: Gal(b1-4)GlcNAc(b1-3)Gal(b1-4)GlcNAc(b1-2)[Gal(b1-4)GlcNAc(b1-3)Gal(b1-4)GlcNAc(b1-6)]Man(a1-6)[Gal(b1-4)GlcNAc(b1-3)Gal(b1-4)GlcNAc(b1-2)Man(a1-3)]Man(b1-4)GlcNAc(b1-4)GlcNAc
Outline: as §1

[36] = molecular target: Gal(b1-4)GlcNAc(b1-3)Gal(b1-4)GlcNAc(b1-2)[Gal(b1-4)GlcNAc(b1-3)Gal(b1-4)GlcNAc(b1-6)]Man(a1-6)[Gal(b1-4)GlcNAc(b1-3)Gal(b1-4)GlcNAc(b1-2)Man(a1-3)]Man(b1-4)GlcNAc(b1-4)[Fuc(a1-6)]GlcNAc
Outline: as §1

[37] = molecular target: Gal(b1-4)GlcNAc(b1-3)Gal(b1-4)GlcNAc(b1-3)Gal(b1-4)GlcNAc
Outline: as §1

[38] = molecular target: Gal(b1-4)GlcNAc(b1-3)Gal(b1-4)GlcNAc(b1-3)Gal(b1-4)GlcNAc(b1-2)Man(a1-3)[Gal(b1-4)GlcNAc(b1-3)Gal(b1-4)GlcNAc(b1-3)Gal(b1-4)GlcNAc(b1-2)Man(a1-6)]Man(b1-4)GlcNAc(b1-4)GlcNAc
Outline: as §1

[39] = molecular target: Gal(b1-4)GlcNAc(b1-3)Gal(b1-4)GlcNAc(b1-3)Gal(b1-4)GlcNAc(b1-2)Man(a1-3)[Gal(b1-4)GlcNAc(b1-3)Gal(b1-4)GlcNAc(b1-3)Gal(b1-4)GlcNAc(b1-2)Man(a1-6)]Man(b1-4)GlcNAc(b1-4)[Fuc(a1-6)]GlcNAc
Outline: as §1

[40] = molecular target: Gal(b1-4)GlcNAc(b1-3)Gal(b1-4)GlcNAc(b1-3)Gal(b1-4)GlcNAc(b1-2)[Gal(b1-4)GlcNAc(b1-3)Gal(b1-4)GlcNAc(b1-3)Gal(b1-4)GlcNAc(b1-6)]Man(a1-6)[Gal(b1-4)GlcNAc(b1-3)Gal(b1-4)GlcNAc(b1-3)Gal(b1-4)GlcNAc(b1-2)Man(a1-3)]Man(b1-4)GlcNAc(b1-4)[Fuc(a1-6)]GlcNAc
Outline: as §1

B1: EEA (Euonymus europaeus) (protein)
chain: MASTIIATGPTYRVYCRAAPNYNMIVGKGVAFLAPIDETNELQYWYKDDTYSYIKDEAGLPAFSLVNKATGLTLKHSNHHPVPVKLVTYNPNVVDESVLWSQADDRGDGYSAIRSLTNPASHLEAAPLNDWSYNGAIIMGGVWIDAYNQQWKIEPHTG
- glycan array binding signal (z-score) [1]: -0.289
- glycan array binding signal (z-score) [2]: -0.226
- glycan array binding signal (z-score) [3]: -0.254
- glycan array binding signal (z-score) [4]: -0.302
- glycan array binding signal (z-score) [5]: -0.22
- glycan array binding signal (z-score) [6]: -0.268
- glycan array binding signal (z-score) (Gal(b1-4)Gal): -0.21
- glycan array binding signal (z-score) [7]: -0.227
- glycan array binding signal (z-score) [8]: -0.213
- glycan array binding signal (z-score) (Gal(b1-4)Glc): -0.146
- glycan array binding signal (z-score) (Gal(b1-4)Glc6S): -0.19
- glycan array binding signal (z-score) (Gal(b1-4)GlcNAc): -0.144
- glycan array binding signal (z-score) [9]: -0.19
- glycan array binding signal (z-score) (Gal(b1-4)GlcNAc(b1-2)Man): -0.174
- glycan array binding signal (z-score) [10]: -0.282
- glycan array binding signal (z-score) [11]: -0.229
- glycan array binding signal (z-score) [12]: -0.044
- glycan array binding signal (z-score) [13]: -0.282
- glycan array binding signal (z-score) [14]: -0.262
- glycan array binding signal (z-score) [15]: -0.235
- glycan array binding signal (z-score) [16]: -0.219
- glycan array binding signal (z-score) [17]: -0.243
- glycan array binding signal (z-score) [18]: -0.249
- glycan array binding signal (z-score) [19]: -0.27
- glycan array binding signal (z-score) [20]: -0.212
- glycan array binding signal (z-score) [21]: -0.173
- glycan array binding signal (z-score) [22]: -0.226
- glycan array binding signal (z-score) [23]: -0.073
- glycan array binding signal (z-score) [24]: -0.18
- glycan array binding signal (z-score) [25]: -0.213
- glycan array binding signal (z-score) [26]: -0.193
- glycan array binding signal (z-score) [27]: -0.201
- glycan array binding signal (z-score) [28]: -0.223
- glycan array binding signal (z-score) [29]: -0.23
- glycan array binding signal (z-score) [30]: -0.101
- glycan array binding signal (z-score) [31]: -0.156
- glycan array binding signal (z-score) [32]: -0.208
- glycan array binding signal (z-score) [33]: 0.279
- glycan array binding signal (z-score) [34]: 0.008
- glycan array binding signal (z-score) [35]: -0.101
- glycan array binding signal (z-score) [36]: -0.09
- glycan array binding signal (z-score) [37]: -0.241
- glycan array binding signal (z-score) [38]: 0.918
- glycan array binding signal (z-score) [39]: -0.144
- glycan array binding signal (z-score) [40]: -0.029
